Reference: PubChem BioAssay AID504332 (National Center for Advancing Translational Sciences (NCATS), 2011)
Where “and” joins values, the source holds several entries; their conditions need not be identical. Equal values may be shown once. Among all 350,000 compounds or so, about 31,000 (8.9%) were called active. Inconclusive results, whose numbers are uncertain, are shown with a selection of clear calls. Calls come from the whole dose curve; as a rule, active = well fitted inhibition curve with a large enough effect; inconclusive = small, poorly fitted or top-dose-only effect; inactive = no such curve, though single readings can be large or run the other way. Where the call is inconclusive, the potency comes from a doubtful curve fit.

target: Histone-lysine N-methyltransferase EHMT2 (Homo sapiens) (UniProt Q96KQ7); test: qHTS Assay for Inhibitors of Histone Lysine Methyltransferase G9a; settings: G9a H3K9 monomethylation, AlphaScreen, 2 h; activity, negative = inhibition: at 59 µM (top of the series) unless noted; note: nearly all actives have a fitted effect of over 75% in size
In short: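 Readings reflect AlphaScreen signal from monomethyl-H3K9 antibody detection. HMT at 20 nM; substrate b-H3K9 500 nM; cofactor SAM 20 uM; 2 h RT reaction; compounds tested as titrations in qHTS with 15 min preincubation.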
% is set by controls: 0 for no effect and ±100 for the full control effect; potency is the fitted concentration of half-maximal effect; tags give direction and shape of the fitted curve.

Sequence of UniProt Q96KQ7 (Q96KQ7 whole entry, looked up): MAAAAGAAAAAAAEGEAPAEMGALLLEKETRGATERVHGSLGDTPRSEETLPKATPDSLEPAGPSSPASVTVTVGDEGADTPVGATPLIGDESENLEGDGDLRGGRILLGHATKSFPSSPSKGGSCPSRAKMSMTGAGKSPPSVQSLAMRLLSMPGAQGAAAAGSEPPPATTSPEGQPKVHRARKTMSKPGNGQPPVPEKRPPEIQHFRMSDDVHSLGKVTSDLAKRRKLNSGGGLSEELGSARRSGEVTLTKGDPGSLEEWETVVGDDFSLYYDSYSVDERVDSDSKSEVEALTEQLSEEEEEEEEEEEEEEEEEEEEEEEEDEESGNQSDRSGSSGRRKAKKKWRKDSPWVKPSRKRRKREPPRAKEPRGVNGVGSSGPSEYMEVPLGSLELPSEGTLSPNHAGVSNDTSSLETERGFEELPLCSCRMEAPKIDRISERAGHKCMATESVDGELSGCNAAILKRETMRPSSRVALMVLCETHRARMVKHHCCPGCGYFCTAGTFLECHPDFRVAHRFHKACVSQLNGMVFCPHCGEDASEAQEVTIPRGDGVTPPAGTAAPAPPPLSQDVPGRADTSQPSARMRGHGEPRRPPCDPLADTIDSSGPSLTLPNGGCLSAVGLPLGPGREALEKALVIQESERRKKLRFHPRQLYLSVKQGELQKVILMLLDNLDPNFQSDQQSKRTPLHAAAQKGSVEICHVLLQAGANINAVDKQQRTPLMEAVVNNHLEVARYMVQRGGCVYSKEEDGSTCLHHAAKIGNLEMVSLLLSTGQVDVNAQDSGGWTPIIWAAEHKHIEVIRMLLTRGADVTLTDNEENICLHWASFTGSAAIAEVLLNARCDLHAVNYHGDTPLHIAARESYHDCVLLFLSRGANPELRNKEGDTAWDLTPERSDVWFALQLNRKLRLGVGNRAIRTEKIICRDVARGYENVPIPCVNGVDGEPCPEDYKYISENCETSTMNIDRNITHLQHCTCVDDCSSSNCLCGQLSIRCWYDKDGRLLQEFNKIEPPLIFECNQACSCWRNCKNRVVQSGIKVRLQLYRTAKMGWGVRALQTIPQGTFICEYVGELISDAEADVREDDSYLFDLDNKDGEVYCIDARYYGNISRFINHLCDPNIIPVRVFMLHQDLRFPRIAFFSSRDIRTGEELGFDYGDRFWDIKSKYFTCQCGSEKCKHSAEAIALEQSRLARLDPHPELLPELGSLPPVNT

Row | Compound | Potency | activity, negative = inhibition
1 | CC(=O)c1ccc(S(=O)(=O)NCCc2csc(-c3cccnc3)n2)cc1 | inconclusive: 89.1 µM [inhibitor, single point] | –
2 | Nc1c(Cl)ncnc1N/N=C/c1ccnc2ccccc12 | inconclusive: 17.8 µM [inhibitor, single point] | –
3 | Cc1cc(Br)ccc1SCC(=O)OCC(=O)Nc1ccccc1C#N | inconclusive: 89.1 µM [inhibitor, single point] | –
4 | S=C(Nc1ccccn1)c1ccccn1 | inconclusive: 100 nM [inhibitor, full curve, poor fit] and inconclusive: 1.12 µM [inhibitor, full curve, poor fit] | –
5 | CCOc1ccc(C(=O)/C=C/Nc2ccc(S(=O)(=O)N=C(N)N)cc2)cc1 | – | inactive: -14.6%
6 | CCCn1c(C(C)Nc2nc(-c3ccc(Cl)c([N+](=O)[O-])c3)cs2)nc2ccccc21 (centres undefined) | inconclusive: 89.1 µM [inhibitor, single point] | –
7 | CCCN(CCC)C(=O)CC(c1ccc(F)cc1)c1ccco1 (centres undefined) | active: 44.7 µM | –
8 | CCn1cc(/C=C/C(=O)Nc2c(C)nn(Cc3ccccc3C)c2C)cn1 | inconclusive: 79.4 µM [inhibitor, single point] | –
9 | COc1cccc(Nc2ncccc2C(=O)NCc2ccccc2)c1 | active: 8.91 µM | –
10 | CC(=O)c1ccc(OCc2cc(C(=O)N(C)Cc3ncc(C)[nH]3)no2)cc1 | inconclusive: 39.8 µM [inhibitor, single point] | –
11 | Cc1cc(C)cc(Oc2nc(C(F)(F)F)nc3ccccc23)c1 | – | inactive: 143%
12 | COc1cccc(NC(=S)N(CCc2c(C)[nH]c3ccccc23)Cc2ccco2)c1 | inconclusive: 28.2 µM [inhibitor, full curve] | –
13 | N#Cc1c(-n2cccc2/C=N/O)sc2c1CCCC2 | – | inconclusive: -66.3% [inhibitor]
14 | Cc1cccc(N/C(N)=N/c2nc(C)c(Cc3ccccc3)c(=O)[nH]2)c1 | inconclusive: 6.31 µM [inhibitor, single point] | –
15 | CCc1ccc(NC(=O)c2cc(S(=O)(=O)NC3CCCCCC3)ccc2F)cc1 | – | inactive: 13.9%
16 | COc1cccc(OC)c1OCCCCN1CCCC1 | – | inconclusive: -93.8% [inhibitor]
17 | Cc1noc(NS(=O)(=O)c2ccc(NC(=O)c3cc(-c4ccccc4Cl)nc4ccccc34)cc2)c1C | inconclusive: 50.1 µM [inhibitor, partial curve, poor fit] | –
18 | CCCC[n+]1ccn(-c2nc3ccccc3nc2[N-]S(=O)(=O)c2ccccc2)c1 | – | inactive: 6.69% [at 102 µM]
19 | COc1cc(C(=O)OCC(=O)c2c[nH]c3ccccc23)ccc1OCC(=O)N1CCOCC1 | inconclusive: 39.8 µM [inhibitor, single point] | –
20 | COc1cc(C(=O)N(Cc2ccc(N(C)C)cc2)C2CCS(=O)(=O)C2)cc(OC)c1OC (centres undefined) | inconclusive: 89.1 µM [inhibitor, single point] | –
21 | Cn1c(=O)[nH]c(=O)c2c1nc(N1CCN(c3ccccc3)CC1)n2CCSc1ncccn1 | inconclusive: 89.1 µM [inhibitor, single point] | –
22 | Cc1cccc(N2CCN(C(=O)c3ccc(Cl)c(S(=O)(=O)NCc4ccco4)c3)CC2)c1C | – | inactive: -10.9%
23 | CCCCNC(=O)CSc1nc2ccc(NC(=O)CSc3nnc(N)s3)cc2s1 | active: 2 µM | –

Row | Compound | Potency | activity, negative = inhibition
24 | CN(C)c1ccc(C=C2C(=O)OC(C)(C(C)(C)C)OC2=O)cc1 (centres undefined) | inconclusive: 89.1 µM [inhibitor, partial curve, poor fit] | –
25 | COc1ccc(-n2c(SCCC(C)C)nc3sc4c(c3c2=O)CC(C(C)C)OC4)cc1 (centres undefined) | – | inactive: -23%
26 | CCn1c(SCC(=O)Nc2oc(C)c3c(C)n[nH]c(=O)c23)nc2sc(C)c(C)c2c1=O | inconclusive: 50.1 µM [inhibitor, partial curve, poor fit] | –
27 | CCOC(=O)C1OC1C(=O)NC(CC(C)C)C(=O)NCCC(C)C (centres undefined) | – | inactive: 32.1%
28 | CC1CCC(NC(=O)c2ccc(CSc3nc4ccncc4n3Cc3ccc(F)cc3)cc2)CC1 (centres undefined) | inconclusive: 10 µM [inhibitor, partial curve, poor fit] | –
29 | Cc1ccc2cc3c(NC(=O)c4ccco4)nn(C)c3nc2c1 | inconclusive: 79.4 µM [inhibitor, single point] | –
30 | CCOC(=O)/C=c1\s/c(=C(\C#N)C(N)=O)n(-c2ccccc2)c1=O | inconclusive: 89.1 µM [inhibitor, single point] | –
31 | CC1(C)Cc2c(sc(/N=C/N3CCOCC3)c2C#N)C(C)(C)N1 | inconclusive: 39.8 µM [inhibitor, partial curve, poor fit] | –
32 | O=C(c1cc2nc(-c3ccccc3)cc(C(F)(F)F)n2n1)N1CCN2CCCC2C1 (centres undefined) | – | inactive: -39.3% [at 102 µM]
33 | Cc1cc(C(=O)OCC(=O)N2c3ccccc3CC2C)c(C)o1 (centres undefined) | active: 11.2 µM | –
34 | COc1ccc(CCNC(=S)N2CCC(C(N)=O)CC2)cc1 | – | inactive: -128%
35 | Cc1ccc(Cl)cc1N1CCN(C(=O)c2ccc3c(Cl)c4c(nc3c2)CCCC4)CC1 | – | inactive: -8.03%
36 | COc1cccc(-c2nc(CS(=O)(=O)CC(=O)N3CCN(c4ccccc4)CC3)c(C)o2)c1 | – | inactive: -6.27%
37 | COc1ccc(-c2cc(CNC(=O)CN(C)Cc3ccccc3)on2)cc1 | – | inactive: 2.85%
38 | CCOC(=O)c1ccccc1NC(=S)N1CCC(C(N)=O)CC1 | inconclusive: 79.4 µM [inhibitor, partial curve, poor fit] | –
39 | COCCN(CCOC)S(=O)(=O)c1ccc(C(=O)Nc2nc(C)c(C(C)=O)s2)cc1 | – | inactive: 36.7% [at 12.7 µM]
40 | CN(C)c1ccc(C(=S)Nc2ccccc2)cc1 | – | inactive: -2.53% [at 102 µM]
41 | Cc1cc(C)c(CSc2ncc(-c3ccc([N+](=O)[O-])cc3)[nH]2)c(C)c1 | – | inconclusive: -73.9% [inhibitor]
42 | Cc1c(Cl)cccc1NC(=O)C(=O)NCCc1csc2nc(-c3ccccc3F)nn12 | – | inactive: 1.79%
43 | CCOc1cc(C(=O)N(C)Cc2cc3cc(OC)ccc3[nH]c2=O)cc(OCC)c1OCC | inconclusive: 70.8 µM [inhibitor, single point] | –
44 | COc1ccc(C2=CC(c3cccc(OC)c3)n3nnnc3N2)cc1 (centres undefined) | inconclusive: 25.1 µM [inhibitor, partial curve, poor fit] | –
45 | O=S(=O)(Nc1ccc(O)c(Sc2nc3ccccc3s2)c1)c1cc(Cl)ccc1Cl | active: 11.2 µM | –
46 | O=C(Cn1c(-c2cccs2)cc2cc(F)ccc21)NCCc1ccc(Cl)cc1 | – | inactive: -6.24%

Row | Compound | Potency | activity, negative = inhibition
47 | O=C(N/N=C/c1ccc(N2CCOCC2)o1)c1ccccc1[N+](=O)[O-] | inconclusive: 7.08 µM [inhibitor, partial curve, poor fit] | –
48 | COc1ccc(N2C(=O)/C(=C/c3ccc([N+](=O)[O-])cc3)N=C2C)c(OC)c1 | inconclusive: 50.1 µM [inhibitor, partial curve, poor fit] | –
49 | COc1cc(N/N=C(\C)c2ccc(N)cc2)nc(-c2ccccc2)n1 | active: 44.7 µM | –
50 | CCN(CC)c1ccc(/C=c2\sc3nc4ccccc4n3c2=O)c(O)c1 | inconclusive: 35.5 µM [inhibitor, full curve, poor fit] | –
51 | O=c1ccc(-c2ccccc2)nn1Cc1c(F)cccc1Cl | – | inactive: 4.97%
52 | COCCC(=O)N(Cc1ccc2c(c1)OCO2)C(C(=O)NC1CCCCC1)c1ccncc1 (centres undefined) | inconclusive: 56.2 µM [inhibitor, partial curve, poor fit] | –
53 | COc1ccc(NC(=O)CN(C)C(=O)c2ccc3[nH]c4c(c3c2)CC(C)CC4)cc1 (centres undefined) | active: 44.7 µM | –
54 | Cc1ccc2nc(SCc3cn4cccnc4n3)[nH]c2c1 | – | inactive: 7.33% [at 102 µM]
55 | COc1ccc(-c2nc(CNC(=O)Nc3ccccc3)c(C)o2)c(OC)c1 | inconclusive: 25.1 µM [inhibitor, single point] | –
56 | CCOc1ccc(CNC(=O)c2ccc3nc(N4CCOCC4)sc3c2)cc1 | – | inactive: -5.35% [at 102 µM]
57 | Cc1ccc(OCC(=O)NCC2(N3CCN(C)CC3)CCCCC2)cc1 | – | inactive: 5.66%
58 | Cc1cc(C)c2c3c(sc2n1)C1(CCSCC1)C(C#N)=C(N)O3 | inconclusive: 25.1 µM [inhibitor, single point] | –
59 | CC(C)(C)c1ccc(/C=C/C(=O)NCCCn2ccnc2)cc1 | inconclusive: 70.8 µM [inhibitor, partial curve, poor fit] | –
60 | CCOc1ccc(OCCC(=O)OC(C)C(=O)Nc2ccc(Cl)cn2)cc1 (centres undefined) | inconclusive: 89.1 µM [inhibitor, partial curve, poor fit] | –
61 | O=C(CSCc1ccc(F)cc1)NCc1ccc2c(c1)OCO2 | inconclusive: 44.7 µM [inhibitor, partial curve] | –
62 | O=C(O)CCc1nn2c3ccccc3n(CCO)c2nc1=O | inconclusive: 28.2 µM [inhibitor, single point] | –
63 | COc1ccc(Nc2ncc(C(=O)Nc3cccc(Cl)c3)c3ccccc23)cc1 | – | inactive: -3.7%
64 | O=c1[nH]c(/C=C\c2cccc(F)c2)nc(O)c1[N+](=O)[O-] | inconclusive: 79.4 µM [inhibitor, single point] | –
65 | COc1cccc2c(=O)c(SC(F)(F)C(F)C(F)(F)F)c(C)[nH]c12 (centres undefined) | inconclusive: 89.1 µM [inhibitor, partial curve, poor fit] | –
66 | O=C(CCCN1C(=O)/C(=C\c2ccco2)SC1=S)Nc1cccc2ccccc12 | inconclusive: 39.8 µM [inhibitor, single point] | –
67 | COc1cc(CNCc2cccs2)ccc1OCc1ccccc1 | – | inactive: -1.73%
68 | CC(=O)Nc1cccc(C(=O)NNC(=O)c2n[nH]c(=O)c3ccccc23)c1 | inconclusive: 39.8 µM [inhibitor, single point] | –
69 | C=CCn1cc(C(=O)OC)c(=O)c2cc(S(=O)(=O)N(CC)CC)ccc21 | inconclusive: 89.1 µM [inhibitor, partial curve, poor fit] | –
